# Test results from the supplement of paper PMC3334620.
# Whole data set: some 33,000 sequences, median “E-score (-0.5 to 0.5)” near -0.035, cut for the highest 2% near 0.34. The list shows a part of the results.
# Target: T1, Mot3 (UniProt P54785)
# T1 sequence: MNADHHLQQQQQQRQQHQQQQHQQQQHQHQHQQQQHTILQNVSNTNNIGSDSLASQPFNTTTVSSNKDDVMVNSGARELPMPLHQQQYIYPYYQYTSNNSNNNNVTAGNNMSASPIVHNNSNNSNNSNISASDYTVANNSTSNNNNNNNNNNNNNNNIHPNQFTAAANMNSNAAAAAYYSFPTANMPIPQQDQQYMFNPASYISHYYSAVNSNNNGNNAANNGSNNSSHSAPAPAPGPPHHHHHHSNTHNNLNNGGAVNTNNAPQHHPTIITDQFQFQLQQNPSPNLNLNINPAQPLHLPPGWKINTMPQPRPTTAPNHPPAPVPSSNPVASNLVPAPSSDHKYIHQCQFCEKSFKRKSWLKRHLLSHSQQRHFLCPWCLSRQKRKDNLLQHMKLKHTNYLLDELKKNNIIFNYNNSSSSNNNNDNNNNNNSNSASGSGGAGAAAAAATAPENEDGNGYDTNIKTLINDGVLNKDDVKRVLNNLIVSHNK
# Assay: PBM E-score (8-mer binding enrichment) (E-score (-0.5 to 0.5)); higher = stronger / more preferred TF binding; most listed sequences are background and not binding sites
# Settings: protein concentration: 200 nM; construct: GST-full length
# In short: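 Full-length yeast transcription factors or their DNA-binding domains, GST-tagged and expressed with PURExpress, were applied at about 100-200 nM to universal all-10-mer Agilent arrays. These arrays had been made double-stranded by primer extension on fresh or once-stripped slides. Detection used fluorescent anti-GST, normalisation used masliner, and E-scores for ungapped eight-base words pooled with reverse complements came from the Universal PBM Analysis Suite.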
row,Sequence,PBM E-score
1,AAGTGAGT,-0.0406
2,CGGTAAGA,-0.246
3,CCCACGGG,-0.123
4,AAGGAAGG,0.176
5,GCTGTCAA,-0.114
6,TCAGAACA,0.236
7,CACTAGTC,-0.152
8,GTGCACTA,-0.0707
9,AACTGTGC,0.0804
10,CAAGCTCC,-0.29
11,AAAATTCA,0.133
12,CAAAGGTC,-0.199
13,AGTACCCG,0.0468
14,ACGGTTGA,-0.0563
15,ACAGACCT,0.0741
16,GATCTACA,0.255
17,AGTCTTCG,-0.0727
18,GGGAACGA,-0.122
19,AATCGGAT,-0.048
20,CCAGTCGA,-0.156
21,AATGCAAT,0.00807
22,GGTTGTTA,0.216
23,CGAACCAG,-0.031
24,CCCTGTCA,0.00194
25,ATCGAGCG,-0.186

row,Sequence,PBM E-score
1,TCTACCAA,-0.0908
2,AGGGCAGA,-0.142
3,ACCCTGGA,-0.149
4,AAATAGTG,0.211
5,CTTACGGA,-0.155
6,CGGAGAAG,-0.113
7,CCCACAAA,0.0705
8,GACTGGAA,-0.213
9,AGTAAGAT,0.00626
10,CTCCTGGC,-0.191
11,AACTCTCA,-0.203
12,CAGTGGGA,-0.134
13,GGGTTGGA,-0.124
14,CATCAAAC,0.119
15,AGGTCCAC,-0.187
16,CAAGAGGC,0.021
17,GATCTCTA,-0.137
18,CCTTCGAC,0.135
19,CACGCTGC,0.0891
20,ACTTAACG,0.141
21,ATGTTCGC,-0.0477
22,AAAGCGGT,0.0633
23,ATCTCGTC,-0.123
24,CCACTGCG,-0.178
25,AGCCCAAG,-0.331

row,Sequence,PBM E-score
1,AAAATAGT,0.0319
2,AAATCTGT,0.0619
3,CAGTGTTC,-0.168
4,CCTGATAC,0.107
5,ACAAGCGA,0.0908
6,GAGCGGCC,-0.336
7,CGGTAGTA,0.0794
8,CCAGTCTA,-0.209
9,GCTTGTGA,-0.00544
10,CAATTATA,0.155
11,CGCCTTTA,0.292
12,AAATCTAC,0.207
13,ACGGGTGC,-0.244
14,GCTGCCTA,0.282
15,CATGTTCC,0.178
16,GCGTGCTA,-0.185
17,ATAGATGG,-0.0411
18,CTGCTCTA,0.00698
19,CACCTATG,-0.0862
20,ACCTGTCA,-0.0178
21,CGGCACGA,0.00099
22,ACACCTAG,0.0682
23,ACACTGAC,0.196
24,ATTTGAAC,0.133
25,ATAAATCC,-0.187

row,Sequence,PBM E-score
1,AACAAAGT,0.204
2,CCCGATTC,-0.0181
3,CGCCGAGA,-0.2
4,CGATACAC,0.141
5,CTTCGTCA,0.0926
6,CCCGCCAC,-0.168
7,AAAGGGCG,0.0811
8,TACGCCAA,-0.142
9,AATATATG,0.157
10,GATCTAAC,-0.0815
11,AATTTTCT,-0.131
12,AACAGTCT,-0.0693
13,ACACGGGC,0.259
14,AGTACTCC,-0.0724
15,CGTCAGCA,-0.00088
16,AACGAACC,-0.099
17,TACAGTCA,0.191
18,AACCAATA,0.105
19,AAGTGTTG,0.129
20,CCCCTCCG,-0.0718
21,TGAGAGCA,-0.0546
22,ACAGCGAA,-0.0596
23,ATCATTAA,0.117
24,CCAGTTGC,-0.163
25,TGCCCCCA,-0.19

row,Sequence,PBM E-score
1,AATCAATA,0.0382
2,CATTGGGA,-0.162
3,GATCCATC,-0.202
4,CATCAGCA,0.0307
5,CGTGGCTA,-0.0939
6,ACCGTTCG,-0.136
7,CCCCGGTC,-0.403
8,ACGAAGAC,-0.218
9,CGCTCTGA,-0.118
10,AGTCAAGG,0.0995
11,ACACTTAC,0.188
12,GCTCGAAC,0.00705
13,ACGCAATA,0.233
14,GATGGTCC,-0.0829
15,CCAGGACA,-0.0658
16,TATGTTGA,0.274
17,GACGTCCA,-0.139
18,GCGAGGAA,-0.0677
19,GGCTCCAC,-0.0243
20,AAACTTGT,0.19
21,CGATCTCA,-0.168
22,GGGCCGAA,-0.232
23,ATCCGCAT,-0.169
24,CTAGAACC,-0.0352
25,ACGTTCTG,-0.0537

row,Sequence,PBM E-score
1,ACATTGCA,0.0621
2,CATGAAGC,-0.00504
3,AACGCCCG,-0.172
4,CCCCGAGG,-0.0759
5,CGGTTAGA,-0.296
6,CGTACGTC,0.00931
7,AAATAGAC,-0.133
8,GTACCATA,0.0521
9,AGAGGTTG,-0.223
10,CCGTCCGC,-0.167
11,GATGAGAA,-0.137
12,AAGCAACA,0.151
13,CAGGGTGC,-0.0572
14,ATAAAGCG,0.038
15,AGTTCGCG,-0.0658
16,ACTCACAC,-0.183
17,AACAGAGG,0.0836
18,GTCCAAAC,-0.263
19,ATGGTTGG,-0.25
20,AGTAATGG,0.0543
21,GAACCTTA,0.0894
22,ATTTCGTG,0.149
23,AGGACCCG,-0.162
24,GCAGGGAA,-0.0328
25,CTTGTAAA,0.378

row,Sequence,PBM E-score
1,CGCCAACA,-0.0349
2,CTTCTACA,0.258
3,GGGGAGGA,-0.263
4,AAAACCGT,0.186
5,AGCTTCCT,0.018
6,AATCGGAA,0.0377
7,CAGTAGTA,0.181
8,GAGTATCA,-0.116
9,TCGCATCA,-0.242
10,ATGATCAG,-0.163
11,ACAATTCT,0.117
12,AAGTGCTC,-0.203
13,CTCAGTGA,-0.0788
14,GCTGTAGA,0.0495
15,ACCACCAA,-0.249
16,ATGTGAAA,0.0925
17,CAGCCCTA,0.124
18,AATATATA,0.0998
19,ATTTGTAA,0.244
20,TCGTCCCA,-0.188
21,ATAGCCGA,-0.0322
22,AACGCAGT,-0.0115
